From PubChem BioAssay AID686979 (National Center for Advancing Translational Sciences (NCATS), 2013)
Where “and” joins values, the source holds several entries; their conditions need not be identical. Identical values can stand only once. Among all 420,000 compounds or so, about 50,000 (12%) were called active. Inconclusive results, whose numbers are uncertain, are shown with a selection of clear calls. Calls follow the shape of the dose curve; as a rule, active = well fitted inhibition curve with a large enough effect; inconclusive = small, poorly fitted or top-dose-only effect; inactive = flat fitted curve, though single readings scatter. A potency beside an inconclusive call is a rough fit, not a confirmed value.

Assay: qHTS for Inhibitors of human tyrosyl-DNA phosphodiesterase 1 (TDP1): qHTS in cells in presence of CPT; also: nearly all actives have a fitted effect of over 55% in size
Settings: chicken DT40 Tdp1-/-;hTDP1 cells + 20 nM CPT, ATP luminescence, 48 h; activity change, negative = growth inhibition: at 46.2 µM (top of the series) unless noted
Method in brief: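 Chicken DT40 Tdp1-/- cells stably complemented with human TDP1 were seeded at 400 cells/well in medium containing 20 nM camptothecin, exposed to pin-transferred compounds, and grown at 37 °C for at least 48 hr. Viability was read as ATP luminescence.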
% is scaled to controls: 0 for no effect and ±100 for the full control effect; potency is read from the fitted curve at half-maximal effect; tags tell the direction and shape of the fitted curve.

| SMILES | Potency | activity change, negative = growth inhibition |
| --- | --- | --- |
| Cc1ccccc1CN1CCCN(CC(=O)Nc2c(C)cccc2C)S1(=O)=O | inconclusive: 29.1 µM [inhibitor, single point] |  |
| O=Cc1ccc(OC2OCCOC2Oc2ccc(C=O)cc2)cc1 (stereo not given) | inconclusive: 29.1 µM [inhibitor, single point] |  |
| COc1cc(C(=O)OC2CC[C@]3(C)C4CCC5[C@]6(O)CC(O)[C@]7(O)C(CN8CC(C)CCC8[C@]7(C)O)[C@]6(O)C[C@@]53O[C@]24O)cc(OC)c1OC (stereo not given in full) | inactive |  |
| Fc1ccc(CNc2nc(-c3ccccc3)cc(C(F)(F)F)n2)cc1 | active: 20.6 µM |  |
| O=c1oc2ccccc2c(Nc2ccc(Cl)cc2)c1[N+](=O)[O-] | inconclusive: 25.9 µM [inhibitor, single point] |  |
| CC(C)Oc1ccc(C(=O)Nc2ccc(Cl)c(S(=O)(=O)Nc3ccc(Cl)cc3)c2)cc1 | inconclusive: 20.6 µM [inhibitor, single point] |  |
| COC(=O)c1cn(NC(=O)c2ccccc2[N+](=O)[O-])c(=O)c2ccccc12 | inactive |  |
| Cn1c(=O)c2c(nc(SCC(=O)Nc3ccc(F)cc3)n2Cc2ccccc2)n(C)c1=O | active: 4.61 µM |  |
| COc1ccc(NS(=O)(=O)c2ccc3[nH]c4c(c3c2)CCCCCC4)cc1 | inconclusive: 29.1 µM [inhibitor, single point] |  |
| COc1ccccc1N1CCN(C(=O)c2ccc3nc[nH]c3c2)CC1 | inactive |  |
| CCC(C)C(=O)Nc1ccc(OC)cc1OC (stereo not given) | inactive |  |
| Cc1cccc(-c2nc(CS(=O)CC(=O)N3CCN(C)CC3)c(C)o2)c1 (stereo not given) | inactive |  |
| Cc1csc(=O)n1CCC(=O)N(C)Cc1c(F)cccc1Cl | inconclusive: 20.6 µM [inhibitor, single point] |  |
| CCOC(=O)c1ccc(Nc2ncnc3nc[nH]c23)cc1 | inconclusive: 16.4 µM [inhibitor, single point] |  |
| OC(CNCc1ccncc1)c1ccccc1 (stereo not given) | inactive |  |
| CCN(CC)c1ccc(NC(=O)CSc2ccsc2[N+](=O)[O-])c(C)c1 | inconclusive: 20.6 µM [inhibitor, partial curve, poor fit] |  |
| COc1cccc(-c2ccc3c(N)c(C(=O)Nc4ccc(C)c(F)c4)sc3n2)c1 | inconclusive: 29.1 µM [inhibitor, single point] |  |
| CCOc1cc(C2c3c(-c4ccccc4O)n[nH]c3C(=O)N2CCc2ccccc2)ccc1O (stereo not given) | active: 16.4 µM |  |
| CCCCCC(=O)Nc1cccc(-c2nc3ncccc3o2)c1 | inactive |  |
| O=C(O)c1ccc(/C=N/Nc2ncc(C(F)(F)F)cc2Cl)cc1 | inactive |  |
| O=C(NCc1cccc(C(F)(F)F)c1)c1ccc2sc([C@H]3C[C@H](O)[C@@H](CO)O3)nc2c1 | inconclusive: 16.4 µM [inhibitor, single point] |  |
| COc1cc(OC)cc(C(=O)N[C@H](C(=O)OCC(=O)Nc2ccc3c(c2)OCO3)C(C)C)c1 | inactive |  |
| Cc1ccc(OCCN2CCC2(C)C(=O)NCc2cccc3ccccc23)cc1 (stereo not given) | inconclusive: 23.1 µM [inhibitor, single point] |  |
| COc1ccccc1-n1c(C)c(C(C)=O)c2cc(O)ccc21 | inconclusive: 29.1 µM [inhibitor, single point] |  |

| SMILES | Potency | activity change, negative = growth inhibition |
| --- | --- | --- |
| COc1ccccc1NC(=S)NNC(=O)c1ccc(Cl)cc1Cl | inconclusive: 23.1 µM [inhibitor, single point] |  |
| COc1ccc(N2C(=O)NC3CC2(C)Oc2ccc(Cl)cc23)cc1OC (stereo not given) | active: 23.1 µM |  |
| O=C(NNc1c(Cl)cc(Cl)cc1Cl)C1CCC1 | inactive |  |
| Cc1ccc(N2CC(C(=O)N3CCC4(CC3)CC(=O)c3ccccc3O4)CC2=O)cc1C (stereo not given) | inconclusive: 29.1 µM [inhibitor, single point] |  |
| O=C(Nc1ccc(F)cc1F)c1ccc(-n2cnnc2)cc1 | inactive |  |
| CSCCC(NC(=O)COc1ccccc1)C(=O)N(C)Cc1cccc(F)c1 (stereo not given) | inconclusive: 29.1 µM [inhibitor, single point] |  |
| COc1ccc(-c2onc(C)c2C)cc1S(=O)(=O)NC1CCC(C)CC1 (stereo not given) | inconclusive: 29.1 µM [inhibitor, single point] |  |
| CSc1ccc(C(=O)C2CCCN(C(=O)CCn3cncn3)C2)cc1 (stereo not given) | inactive |  |
| Cc1ccc(OCC(=O)Nc2ccc(C(=O)OCc3cc(=O)n4c(C)csc4n3)cc2)cc1 | inconclusive: 25.9 µM [inhibitor, single point] |  |
| O=C(Nc1cccc(S(=O)(=O)N2CCOCC2)c1)c1cccc(S(=O)(=O)N2CCCCC2)c1 | inconclusive: 29.1 µM [inhibitor, single point] |  |
| CCNS(=O)(=O)c1ccc(NC(=S)NCc2ccco2)cc1 |  | inconclusive: -31.4% [inhibitor] |
| Cc1cccc(NC(=O)CSc2cc(C)c3ccccc3n2)c1 | inconclusive: 16.4 µM [inhibitor, single point] |  |
| COc1cc(C(=O)N/C(=C\c2cn(C)c3ccccc23)C(=O)N2CCN(C)CC2)cc(OC)c1OC | inactive |  |
| CCn1c2ccccc2c2cc(N=C3SC(CC(=O)Nc4ccccc4OC)C(=O)N3C)ccc21 (stereo not given) | inconclusive: 29.1 µM [inhibitor, single point] |  |
| CC1(C(=O)Nc2ccc3c(c2)OCO3)Cc2c(-c3cccc(C(F)(F)F)c3)ccnc2O1 (stereo not given) | active: 4.11 µM |  |
| c1ccc2c(c1)sc[n+]2CCC1CCCCC1 | active: 5.01 µM |  |
| CCN(CC)S(=O)(=O)c1ccc(/C=C/C(=O)NC2CCCCC2)cc1 | inconclusive: 20.6 µM [inhibitor, single point] |  |
| CC(=O)Nc1ccc(NC(=S)Nc2ccc(F)cc2)cc1 | inactive |  |
| Cc1ccccc1NC(=O)N(O)C1(C#N)CCCCC1 | inactive |  |
| COC(=O)C1=C(C(=O)OC)C(C(=O)OC)C(C(=O)OC)C(C(=O)OC)(C(=O)OC)C(C(=O)OC)=C1C(=O)OC (stereo not given) | active: 2.59 µM |  |
| CC(=O)c1ccc(-c2cnc3c(NC=O)cc(-c4ccc(C(=O)NC5CC5)cc4)cn23)cc1 | active: 5.8 µM |  |
| CCNC(=O)C(=O)Nc1cc2c3c(c1)CCN3C(=O)CC2 | inactive |  |
| O=C(CNC1CCCCC1)NCC1(c2ccccc2)CCCC1 | inconclusive: 29.1 µM [inhibitor, single point] |  |
| COc1ccc(CNC(=O)C2CCN(C(=O)c3ccco3)CC2)cc1 | inactive |  |

| SMILES | Potency | activity change, negative = growth inhibition |
| --- | --- | --- |
| CC(C)CNC(=O)C1=CC(c2ccc3c(c2)OCO3)=NS(=O)(=O)N1C | inactive |  |
| COC(=O)[C@]1(Cc2ccccc2)N[C@H](c2ccc(-c3ccc(Cl)c(Cl)c3)cc2)[C@@H]2C(=O)N(C)C(=O)[C@@H]21 | active: 18.4 µM |  |
| COc1ccc(N2CCN(C(=O)Nc3cccc(C(F)(F)F)c3)CC2)cc1 | inconclusive: 29.1 µM [inhibitor, single point] and inconclusive: 18.4 µM [inhibitor, single point] |  |
| COc1ccc(NS(=O)(=O)c2cc(NC(=O)c3cncc(Br)c3)ccc2OC)cc1 | inconclusive: 16.4 µM [inhibitor, single point] |  |
| Cc1ccc(Cn2c(CNC(=O)c3ccccc3Br)nc3cccnc32)cc1 | inconclusive: 29.1 µM [inhibitor, single point] |  |
| CCc1ccccc1NC(=O)Cc1c(C(=O)O)[nH]c2ccc(Cl)cc12 | inactive |  |
| O=C(C1CCC(CNS(=O)(=O)c2cccs2)CC1)N1CCN(c2ccc(F)cc2)CC1 (stereo not given) | inconclusive: 29.1 µM [inhibitor, single point] |  |
| O=C(CCNC(=O)c1ccc([N+](=O)[O-])cc1)Nc1cc(C(F)(F)F)ccc1N1CCOCC1 | inconclusive: 23.1 µM [inhibitor, single point] |  |
| COc1ccc(C2CC(c3ccc(Cl)cc3)=NN2c2ccc(S(N)(=O)=O)cc2)cc1 (stereo not given) | inconclusive: 29.1 µM [inhibitor, single point] |  |
| Cc1ccc2nc(Cl)c(/C=N/NC(=O)c3ccccc3O)cc2c1 | inconclusive: 18.4 µM [inhibitor, single point] |  |
| Cc1cc(C(=O)OCC(=O)Nc2cccc(S(=O)(=O)N3CCOCC3)c2)c(C)o1 | inconclusive: 29.1 µM [inhibitor, single point] |  |
| CCOC(=O)c1cc(C#N)c(SCc2ccc(C#N)cc2)nc1C | inactive |  |
| CCCCn1c(N)c(Sc2ccc(Cl)cc2)c(=O)[nH]c1=O |  | inconclusive: -31.3% [inhibitor] |
| COc1ccc(CCC(=O)Nc2sccc2C#N)cc1 | inactive |  |
| COC(=O)C1=COC(C)C2CN3CCc4c([nH]c5cc(OC)c(OC)cc45)C3CC12 (stereo not given) | inconclusive: 20.6 µM [inhibitor, single point] |  |
| CCC/C=C/c1ccc(CN2C(CC(C)C)C(=O)N(Cc3cn(Cc4ccco4)nn3)CCS2(=O)=O)cc1 (stereo not given) | inconclusive: 29.1 µM [inhibitor, single point] |  |
| COc1ccc(N(Cc2cc3cccc(C)c3[nH]c2=O)S(=O)(=O)c2ccc(OC)cc2)cc1 | inconclusive: 18.4 µM [inhibitor, single point] |  |
| CCOC(=O)C1CCCN(C(=O)Cn2c(=O)c3cccn3c3cccnc32)C1 (stereo not given) | inactive |  |
| Fc1ccc2nncc(SCc3ccccc3Cl)c2c1 | inconclusive: 29.1 µM [inhibitor, single point] |  |
| O=C(CCCOc1ccccc1)Nc1cccc(S(=O)(=O)N2CCCCC2)c1 | inconclusive: 29.1 µM [inhibitor, single point] |  |
| Cc1ccc(-n2nc3c(=O)n(CC(=O)NC(C)CCc4ccccc4)nc(C)c3c2C)cc1 (stereo not given) | inconclusive: 20.6 µM [inhibitor, single point] |  |
| CC(C)(C)C1C/C(=C/c2ccccn2)C(=O)/C(=C/c2ccccn2)C1 (stereo not given) | active: 0.92 µM |  |
